Data published in the supplement of paper PMC11417369.
This is one part of the list.

What follows are sequences tested on PfHDP1 homeodomain (GST-tagged) (assay: gcPBM binding intensity (ln(normalized median fluorescence intensity)); higher = stronger DNA binding).
Summary of the method: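 GST-tagged P. falciparum DNA-binding domains produced in E. coli were incubated for 1 h on an Agilent 4 × 180k array of primer-extended double-stranded 36-bp intergenic genomic probes with negative controls. Binding intensity is the highest Masliner-normalised natural-log median intensity across replicate spots of either probe orientation, with bound protein detected by Alexa488 anti-GST antibody at 488 nm.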

| Sequence | gcPBM binding intensity (ln) |
| --- | --- |
| ATATATACATATATATGTACGTATATTTTTATTTCT [XGTACX_site6198] | 6.69 |
| ATTTAACAACTTCAAACACACAATATAGATTTATAT [CACACA_site7067] | 6.6 |
| TATAAACCCACCTACACACACAACGTAAATGCATTG [CACACA_site2238] | 6.96 |
| AAAAAAAAAAAAACATGTACATAAATGTAAAAAAGT [XGTACX_site8158] | 6.62 |
| AACATACACATATACACACACACATATATACATATA [CACACA_site1093] | 7.65 |
| AATTAAGTTAAACATTAAAAAAAACAAAAAATTAAA [CACACA_negctrl_site1333] | 6.48 |
| ATTTTTTTTCTTTTTTTTTTACATTTTTTTCTTTTT [CACACA_negctrl_site1289] | 6.17 |
| ACATATAAAATGTATACACACAAATATTACAGAGAT [CACACA_site4920] | 6.94 |
| TATAATAACAATTTAGTGCATATAATAATATTTTAT | 8.78 |
| GCTTTTGAAAATATACACATGTTAGGAATACAGGGG [TGCATGCA_negctrl_site480] | 7.17 |
| CTCATAAAAATAACGTTAACATAAATTTATTGTGAT [XGTACX_negctrl_site169] | 6.95 |
| TTTTCATATGAACAATGTACACATCGTATAATTCTG [XGTACX_site4756] | 6.68 |
| TGAACAGACGAGCACACACACACATATATATATATA [CACACA_site1019] | 9.28 |
| ATACATATTAAAGGATGTACACTTATATTTTTTAGA [XGTACX_site5406] | 6.07 |
| AATATAAAACATATCACACATATGTATTTATGTATA [CACACA_site5763] | 6.29 |
| TATATGTCAATATCTACACACATATATATAATTATT [CACACA_site3156] | 6.43 |
| TGTGGGAATAACCACACACACACACGCATATAAATA [CACACA_site7634] | 6.68 |
| TAAATTTAGAAACACACACACATATATATATATATA [CACACA_site847] | 9.36 |
| TTTATATTATTTTAAACATGCACAAGTATAATTTAT [TGCATGCA_site233] | 8.55 |

| Sequence | gcPBM binding intensity (ln) |
| --- | --- |
| CAAAATAAAAATAACACACACATTTATATATATACA [CACACA_site1190] | 6.73 |
| TTTTTAATTATCTTTTCCCATGGTTTCTCCGTTTTT [XGTACX_negctrl_site39] | 6.74 |
| ATTTCTCAATCTTAATGTACAAAAAAAAGGAAAAAG [XGTACX_site1210] | 6.37 |
| AGCATATTATCATATTGTACATATTATAATATATAT [XGTACX_site3907] | 6.43 |
| ATATGTTTTGTTTACGTGCACTGCTTTGTTTATATA [GTGCAC_site9622] | 10 |
| AGCAAATCAGATAGTAGTACATTTAAATTAGACTTT [XGTACX_site4172] | 6.26 |
| TAAAAATTTTAATAAACACACAATGAGATATTGAAT [CACACA_site5704] | 6.31 |
| CATGTATTTTATATTACACACTAATATTATAGATAT [CACACA_site6819] | 6.54 |
| TTTTTTTTTTTGTTTAAACACACGAGCTTTCTTCTT [CACACA_site4085] | 6.37 |
| AAACATATAAACATATGTACATATAAACATATATAC [XGTACX_site5026] | 6.46 |
| TTTTTAAAACATCACTGTACCCGTTATGGTGAACAT [XGTACX_site3483] | 6.32 |
| TAAAACATAAGAGACACACACACATATATATATATA [CACACA_site3643] | 9.37 |
| ATATTCTTTTTATGTGGTACTAATTTTTTTTTTTTA [XGTACX_site3791] | 6.29 |
| TTTTTAAATAATTGAAGTACACATTTCTCTAAGTTG [XGTACX_site2846] | 6.08 |
| AGTAAAAGAAAGCACACACACATGTATATAGGTATG [CACACA_site7759] | 6.77 |
| ATCATCCAAGATCTTACACACATATTAAATAAATAA [CACACA_site1473] | 6.66 |
| TTTTATTTTTTTAAATGTACACATATTAATGTAAGG [XGTACX_site319] | 6.41 |
| ATCATGTTATATACATGTACATATATATATATATAA [XGTACX_site609] | 6.87 |
| ATGTAAATATATATATGTACTAATTAGTAGTTTACG [XGTACX_site6271] | 7.18 |

| Sequence | gcPBM binding intensity (ln) |
| --- | --- |
| TTACATAATTTCTGCTGTACCAATTTTGAGAAGTTG [XGTACX_site4023] | 6.35 |
| ATCTTAACTCTATGCACACATAAAAGTATATAAATA [CACACA_site2256] | 9.98 |
| CATACATACATACATACACACATACAGATATATATA [CACACA_site4890] | 7.43 |
| TTTTATAAATTATAATTCTATTATCTGTTCTTTTTA [TGCATGCA_negctrl_site487] | 6.39 |
| TCCTTATTACTTTTTTAAGTCGTAATGAAAGAAAAA [CACACA_negctrl_site1497] | 6.15 |
| TATATATATATATGTGCATGTAATGATTCAGCATCT [TGCATGCA_site803] | 9.5 |
| AACACAGATAAATTAACACACACACCCATATATATA [CACACA_site9310] | 7.11 |
| CACATATAGTTATATGCACACATCTTACACATCTAT [CACACA_site5937] | 10.2 |
| TTGAACTCTCTTACGCGTACGTGTTATTATGAAAAT [XGTACX_site6265] | 6.73 |
| CAATTTGGGGTGTACACACACCTTATTTAAATTAAA [CACACA_site6663] | 6.74 |
| ATGAAATATCGGAACGCACACATAAATATATTTATA [CACACA_site2670] | 6.93 |
| TAGCTTATTAATATCATACACACATAGATATATTTA [CACACA_site3105] | 6.34 |
| ATATCTTATTTTCCTTGTACTTATTTCATAATTACA [XGTACX_site3894] | 6.81 |
| TATTAAATATTGTAATGTACATATATAATATAATAT [XGTACX_site1809] | 6.63 |
| AATGTCATGATACATACACACACATACACATACACA [CACACA_site8665] | 6.98 |
| TAAATATGTATAAATTGTACAAAATATATGAATAGT [XGTACX_site5659] | 6.94 |
| AATTTCCCATATTACACACATACTATGATATATAAA [CACACA_site3834] | 6.97 |
| CAATAAACCATTTTTTGTACATAAAAATAGGTATTG [XGTACX_site1892] | 6.29 |
